Reference: patent publication US4056673A, “Phosphonoacetic acid derivatives of nucleosides” (Hoffmann-La Roche Inc., priority 1976, dated 1977)

Tested on: herpes simplex type 1 virus
Experiment: In vitro antiviral activity by tube dilution assay in WI-38 human lung fibroblast cells
Conditions: for EC99: Human alphaherpesvirus 1, WI-38, 168 h, read-out: dose which inhibited the growth of herpes simplex type 1 virus by at least 2 logarithms (99% reduction in virus titer)
Method: Purine and pyrimidine derivatives of phosphonoacetic acid, disodium salt, were tested for in vitro antiviral activity against herpes simplex type 1 virus by the tube dilution assay. Monolayers of WI-38 human lung fibroblast cells were infected with serial ten-fold dilutions of herpes simplex type 1 virus. The mean tissue culture infective doses (TCID50) of the virus-infected cultures in the presence and absence of non-cytotoxic doses of the test substances were determined on the basis of cytopathogenic effect after 7 days incubation at 37° C. The doses of test substances which inhibited the growth of herpes simplex type 1 virus by at least 2 logarithms (equivalent to 99% reduction in virus titer) are as follows: […]

Compound | EC99 [µg/mL] | dose which inhibited the growth of herpes simplex type 1 virus by at least 2 logarithms (99% reduction in virus titer) (WI-38 cells, 7 days at 37° C) [μg/ml]
Nc1ncnc2c1ncn2[C@@H]1O[C@H](COP(=O)(O)CC(=O)O)[C@@H](O)[C@H]1O [Adenosine-5'-mono-carboxymethylphosphonate] | 250 | 
Nc1nc2c(ncn2[C@@H]2O[C@H](COP(=O)(O)CC(=O)O)[C@@H](O)[C@H]2O)c(=O)[nH]1 [Guanosine-5'-mono-carboxymethylphosphonate] | < 500 | 
Cc1cn([C@H]2C[C@H](O)[C@@H](COP(=O)(O)CC(=O)O)O2)c(=O)[nH]c1=O [Thymidine-5'-mono-carboxymethylphosphonate] | 500 | 
O=C(O)CP(=O)(O)OC[C@H]1O[C@@H](n2ccc(=O)[nH]c2=O)[C@H](O)[C@@H]1O [Uridine-5'-mono-carboxymethylphosphonate] | 125 | 
Adenosine-2'-(or 3'),5'-bis-carboxymethylphosphonate |  | > 1000
